Test results from PubChem BioAssay AID504339 (National Center for Advancing Translational Sciences (NCATS), 2011).
About 17,000 (4.4%) of roughly 390,000 compounds were called active. The shares of active, inactive and inconclusive entries below differ from those in the screen. The call rests on the fitted dose curve; in most records, active means well fitted inhibition curve with a large enough effect; inconclusive means small, poorly fitted or top-dose-only effect; inactive means no such curve, though single readings can be large or run the other way. A potency beside an inconclusive call is a rough fit, not a confirmed value.

Biological target: Lysine-specific demethylase 4A (Homo sapiens) (UniProt O75164)
Sequence of UniProt O75164 (O75164 whole entry, looked up, the tested form may be a part): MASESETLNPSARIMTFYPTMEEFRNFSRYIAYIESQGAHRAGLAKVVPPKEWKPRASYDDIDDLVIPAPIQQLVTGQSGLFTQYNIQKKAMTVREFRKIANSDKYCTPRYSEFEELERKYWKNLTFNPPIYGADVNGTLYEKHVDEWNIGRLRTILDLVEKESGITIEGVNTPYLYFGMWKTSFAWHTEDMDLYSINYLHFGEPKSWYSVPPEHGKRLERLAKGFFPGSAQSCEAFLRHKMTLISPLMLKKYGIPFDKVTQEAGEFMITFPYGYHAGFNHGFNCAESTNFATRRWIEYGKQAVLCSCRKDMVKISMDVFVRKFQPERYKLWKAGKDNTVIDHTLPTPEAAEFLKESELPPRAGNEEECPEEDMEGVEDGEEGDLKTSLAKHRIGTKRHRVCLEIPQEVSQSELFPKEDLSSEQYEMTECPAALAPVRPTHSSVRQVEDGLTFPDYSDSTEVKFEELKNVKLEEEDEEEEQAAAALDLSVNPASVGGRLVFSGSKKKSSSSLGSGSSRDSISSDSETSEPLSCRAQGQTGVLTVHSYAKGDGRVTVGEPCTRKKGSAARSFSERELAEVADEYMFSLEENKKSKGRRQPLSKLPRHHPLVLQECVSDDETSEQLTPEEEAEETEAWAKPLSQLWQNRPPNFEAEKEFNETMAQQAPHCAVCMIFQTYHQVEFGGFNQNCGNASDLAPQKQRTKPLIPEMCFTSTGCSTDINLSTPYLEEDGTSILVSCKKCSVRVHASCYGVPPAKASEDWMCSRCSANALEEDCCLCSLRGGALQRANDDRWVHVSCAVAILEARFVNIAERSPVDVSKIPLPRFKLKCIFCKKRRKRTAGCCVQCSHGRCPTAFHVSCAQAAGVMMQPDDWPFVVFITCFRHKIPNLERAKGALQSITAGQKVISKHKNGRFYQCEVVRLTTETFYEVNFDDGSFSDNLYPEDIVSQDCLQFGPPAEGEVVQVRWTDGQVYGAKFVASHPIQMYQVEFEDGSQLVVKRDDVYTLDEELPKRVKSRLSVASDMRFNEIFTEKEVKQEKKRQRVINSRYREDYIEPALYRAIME
Assay: qHTS Assay for Inhibitors of JMJD2A-Tudor Domain; further: nearly all actives have a fitted effect of over 50% in size
Details: AlphaScreen JMJD2A-Tudor / H3K4me3 peptide binding; series mostly up to 114 µM
Potency means the concentration at half of the fitted maximal effect; tags describe the fitted curve by direction and shape.

Potency, inconclusive:
CCOC(=O)c1c(-c2ccccc2)csc1NC(=S)NC(=O)c1ccccc1 100 µM [inhibitor, partial curve, poor fit], N#CCCN(C(=O)COC(=O)CNC(=O)c1cccs1)c1ccc(F)cc1 31.6 µM [inhibitor, partial curve], Cc1ccn2cc(-c3cccc(NC(=O)C(C)C)c3)nc2c1 12.6 µM [inhibitor, partial curve], CCn1c(C)c(C)c2cc(C(=O)NCCc3cc(OC)c(OC)c(OC)c3)ccc21 63.1 µM [inhibitor, partial curve], CC(C)(C)OC(=O)[C@H](Cc1ccccc1)NC(=O)c1nc[nH]c1C(=O)N1CCN(c2ccccc2)CC1 20 µM [inhibitor, full curve], COc1ccc(C(=O)NCCc2c[nH]c3ccccc23)cc1[N+](=O)[O-] 39.8 µM [inhibitor, partial curve], COc1ccccc1C(=O)NCc1ccc2c(c1)CCN2C(=O)c1cccc(C)c1 89.1 µM [inhibitor, partial curve], CN(C)/N=C/C=C1\CCC/C(=C\c2ccc(F)c(F)c2)C1=O 12.6 µM [inhibitor, full curve], CN1C/C(=C/c2ccsc2)C(=O)/C(=C/c2ccsc2)C1 56.2 µM [inhibitor, partial curve], CCCCCn1c(=O)[nH]c2cc(C(=O)NCc3ccccn3)ccc2c1=O 20 µM [inhibitor, full curve, poor fit], Clc1ccc(-c2noc3ncnc(NCCCN4CCN(c5ccccc5)CC4)c23)cc1 44.7 µM [inhibitor, partial curve], O=C(Cc1ccccc1)N/N=C/c1ccc(OCC(=O)Nc2ccccc2)cc1 79.4 µM [inhibitor, partial curve], COC(=O)C(NC(=O)COc1ccccc1)(Nc1nc2c(s1)CCCC2)C(F)(F)F (stereo not given) 56.2 µM [inhibitor, partial curve], CC(=O)Nc1ccc(Nc2nc3ccccc3nc2NS(=O)(=O)c2ccc(Cl)c([N+](=O)[O-])c2)cc1 50.1 µM [inhibitor, partial curve], COc1cc(NC(=O)CN(C)S(=O)(=O)c2ccc3[nH]c4c(c3c2)CCCC4)cc(OC)c1OC 44.7 µM [inhibitor, partial curve], CCOC(=O)N1CCc2c(sc(NCc3ccc(OCC)cc3)c2C(=O)Nc2ccc(OC)cc2OC)C1 17.8 µM [inhibitor, full curve], CN1/C(=C\C=C2/SC(=S)NC2=O)C(C)(C)c2ccccc21 28.2 µM [inhibitor, full curve], CC(=O)Nc1nonc1NC(=O)CSc1ncn[nH]1 100 µM [inhibitor, single point], Cc1ccc(N2NC(=O)/C(=C\c3cc4c(cc3[N+](=O)[O-])OCO4)C2=O)cc1C 79.4 µM [inhibitor, partial curve], Cc1cccc(S(=O)(=O)Nc2nc3ccccc3nc2Nc2ccc3c(c2)OCO3)c1 50.1 µM [inhibitor, partial curve], Cn1cccc1CC(=O)N/N=C/C(Cl)=C/c1ccccc1 70.8 µM [inhibitor, single point], CC(=O)N1c2ccccc2CCc2ccc(N)cc21 79.4 µM [inhibitor, partial curve], NC(=O)c1sc2nc(N3CCOCC3)c3c(c2c1N)CCCC3 79.4 µM [inhibitor, partial curve], CCOc1ccc(CCNC(=O)c2ccc3[nH]c(C)c(C)c3c2)cc1 56.2 µM [inhibitor, single point], O=C(Nc1ccccc1[N+](=O)[O-])C1=C(O)CCn2c1nc1ccccc12 89.1 µM [inhibitor, partial curve], O=C(/C=C/c1ccccc1)NC(=S)Nc1ccc(CN2CCOCC2)cc1 11.2 µM [inhibitor, full curve, poor fit], O=C(CN1C(=O)/C(=C/c2ccco2)SC1=S)NC1CCS(=O)(=O)C1 (stereo not given) 44.7 µM [inhibitor, partial curve], COc1cccc(C(=O)N=c2sc3cc(S(C)(=O)=O)ccc3n2C)c1 5.62 µM [inhibitor, full curve], CN(c1cccc(Cl)c1)S(=O)(=O)c1cccc(C(=O)NC2=NCCS2)c1 89.1 µM [inhibitor, single point], Cc1ccc(C(=O)NC(=S)Nc2ccc(N3CCN(C(=O)c4ccco4)CC3)cc2)cc1 11.2 µM [inhibitor, full curve], COc1ccc(-c2csc3ncnc(Nc4ccc(OC)c(OC)c4)c23)cc1 50.1 µM [inhibitor, partial curve], O=[N+]([O-])c1cccc(-n2cccc2/C=N/Nc2nc(N3CCCCC3)nc(N3CCCCC3)n2)c1 14.1 µM [inhibitor, full curve], COc1ccc(/C=N\NC(=O)C2=NNC(=O)C2C)cc1 (stereo not given) 89.1 µM [inhibitor, single point], Cc1cccc(NC(=S)NNC(=S)NCc2ccccc2)c1 3.16 µM [inhibitor, full curve, poor fit], CCOc1ccc(OCC)c(NC(=O)CN(c2ccc(C)cc2)S(=O)(=O)c2c(C)n[nH]c2C)c1 35.5 µM [inhibitor, partial curve], N#CC1C(C#N)N2CCCN2C1c1ccc(Cl)cc1 (stereo not given) 3.16 µM [inhibitor, single point], COc1cc(C2C(C(=O)c3cccs3)=C(O)C(=O)N2c2cc(C)on2)ccc1O (stereo not given) 89.1 µM [inhibitor, single point], CC1(C)Cc2c(sc(NC(=O)COc3cccc4ccccc34)c2C#N)C(C)(C)N1 56.2 µM [inhibitor, partial curve], CCOC(=O)c1ccc(N2C(=O)c3[nH]nc(-c4ccccc4)c3C2c2cccs2)cc1 (stereo not given) 5.62 µM [inhibitor, full curve, poor fit]

Potency, inactive:
CCOc1ccc2c(c1)C(C)=CC(C)(C)N2S(=O)(=O)c1ccc(F)cc1, O=C(CN1C(=O)c2ccccc2C1=O)NN1C(=O)c2ccccc2C1=O, COc1ccccc1C(=O)NC(=O)COC(=O)C1(C)CC1(Cl)Cl (stereo not given), COC(=O)c1ccc(Cl)c(NC(=O)c2cccc([N+](=O)[O-])c2C)c1, CCOC(=O)Cn1c(=O)oc2cc(S(=O)(=O)Nc3cc(OC)cc(OC)c3)ccc21, Nc1nc(NCc2ccccc2Cl)c2[nH]cnc2n1, CCc1ccccc1Nc1nn2c(=O)c3ccc(C(=O)NCc4cccs4)cc3nc2s1, O=C(CN(Cc1ccccc1)C1=NCCS1)c1ccccc1, CCn1cc(CN2CCCC(CNS(=O)(=O)c3cccc4cccnc34)C2)cn1 (stereo not given), CCOc1ccc(OCCC(=O)OCC(=O)N2CCN(S(=O)(=O)c3ccc(C)cc3)CC2)cc1, COc1ccc(CNS(=O)(=O)c2cc(C(=O)Nc3cc(Cl)cc(Cl)c3)ccc2F)cc1, Cc1nc(-c2ccc(NC(=O)c3ccccc3Br)cc2)cs1, CC[C@@]1(C(=O)OC)N[C@H](CN(C)C(=O)Nc2ccc(C(F)(F)F)cc2)[C@@H]2C(=O)N(C)C(=O)[C@@H]21, O=C(NNC1CC(=O)N(c2ccc(F)cc2)C1=O)c1cccnc1 (stereo not given), CC1=C(C(=O)Nc2cccnc2)C(c2ccc(F)cc2)n2nc(SCc3ccccc3F)nc2N1 (stereo not given), Cc1cc(-c2nc(C)c(C(=O)NNS(=O)(=O)c3cccc(C(F)(F)F)c3)s2)no1, CCOC(=O)c1sc(N2C(=O)c3oc4ccc(F)cc4c(=O)c3C2c2cccc(OC)c2)nc1C (stereo not given), CCC(C)N(C(=O)COC(=O)CSc1ccc([N+](=O)[O-])cc1)C1CCS(=O)(=O)C1 (stereo not given), O=C(C1COc2ccccc2O1)N(Cc1cccnc1)c1nc2ccc(F)cc2s1 (stereo not given), CC(=O)N1N=C(c2ccccc2O)OC1(C)CC(=O)Nc1ccccc1 (stereo not given), CCCNC(=O)c1cc2n(n1)CCCN(Cc1ccc(F)cc1)C2=O, COc1ccccc1N1CCN(C(c2ccccc2)c2nnc(-c3ccccc3Cl)o2)CC1 (stereo not given), N#CC1=C(N)C(C#N)(C#N)C(c2ccc[nH]2)C2CCCC=C12 (stereo not given), O=C(OCc1cccc([N+](=O)[O-])c1)c1ccc2ccccc2n1, COc1cc(Cl)c(NS(=O)(=O)c2ccc3[nH]c(=O)ccc3c2)c(OC)c1, O=C(O)C1CC=CCC1C(=O)NNc1ccccc1 (stereo not given)

Potency, active:
CC(C)CCNC(=O)NC(=O)COC(=O)/C=C/c1cc(Br)ccc1F 14.1 µM, Oc1ccc2ccccc2c1N=Nc1nccs1 5.62 µM, CCOc1ccc(N=Nc2c(N)[nH][nH]c2=O)cc1 79.4 µM, Cc1ccc2scc(N3CCN(c4ccccc4)CC3)c(=O)c2c1 44.7 µM, Oc1c(C(c2ccccc2)N2CCOCC2)ccc2ccccc12 (stereo not given) 10 µM
